The other results are listed elsewhere or left out.

The subject of test [1] is HSkMC (human skeletal muscle cells). Kind of test: cytotoxicity call (relative viability < 0.9). The conditions noted are these: 10 µM.
Test [2] relates to S. aureus RN4220. The test is described as follows: growth inhibition call (relative growth <= 0.2). The conditions noted are these: 50 µM.

Consider `C[C@@H]1CN([C@@H](C)CO)C(=O)c2cccc(NC(=O)Nc3ccc(C(F)(F)F)cc3)c2O[C@H]1CN(C)Cc1ccc(-c2ccccc2)cc1`, for which, in test [1], the cytotoxicity call is “inactive”. In test [2], the growth inhibition call is “inactive”.

Consider `COc1ccc(CCNC(=O)[C@@]2(Sc3ccc(C)cc3)CC(=O)N(Cc3ccccc3C(F)(F)F)[C@@H]2c2ccc(CO)cc2)cc1`, for which, in test [1], the cytotoxicity call was “inactive”. Besides, the growth inhibition call in test [2] is “inactive”.

Turning to `COc1ccc(NC(=O)Nc2ccc3c(c2)C(=O)N([C@@H](C)CO)C[C@@H](C)[C@@H](CN(C)Cc2ccc(C(F)(F)F)cc2)OCCCC[C@@H](C)O3)cc1`, the cytotoxicity call in test [1] is “inactive”. In addition, the growth inhibition call in test [2] is “inactive”.

With `C[C@H](CO)N1C[C@H](C)[C@H](CN(C)C)OCCCC[C@H](C)Oc2ccc(NC(=O)Nc3cccc4ccccc34)cc2C1=O`, in test [1], the cytotoxicity call was “inactive”. The growth inhibition call in test [2] was “inactive”.

For the compound `C[C@@H]1CN([C@H](C)CO)C(=O)c2cc(NC(=O)Nc3ccccc3)ccc2O[C@@H](C)CCCCO[C@@H]1CN(C)C(=O)NC1CCCCC1`, in test [1], the cytotoxicity call was “inactive”. Moreover, in test [2], the growth inhibition call was “inactive”.

In the case of `CC(C)NC(=O)N(C)C[C@H]1OCCCC[C@H](C)Oc2ccc(NC(=O)C3CCCCC3)cc2C(=O)N([C@H](C)CO)C[C@H]1C`, the cytotoxicity call in test [1] is “inactive”. For the same compound, the growth inhibition call in test [2] is “inactive”.

`C=CCC[C@H](Cc1ccc(F)cc1)C(=O)O[C@@H](CNC(=O)[C@@H](CC=C)CC(=O)N[C@H](CO)Cc1ccccc1)c1ccccc1`: the cytotoxicity call in test [1] was “active”. In test [2], the growth inhibition call is “inactive”.

Regarding `CCOc1ccc(NC(=O)CC(C)O)cc1` (stereo not given), in test [1], the cytotoxicity call is “inactive”. The growth inhibition call in test [2] was “inactive”.

In the case of `CC(=O)N[C@H]1[C@H]([C@H](O)[C@H](O)CO)OC(C(=O)O)=C[C@@H]1NC(=N)N`, the cytotoxicity call in test [1] was “inactive”. Moreover, the growth inhibition call in test [2] was “inactive”.

In the case of `C[C@@H]1CN([C@H](C)CO)C(=O)c2cccc(NS(=O)(=O)c3ccc(Cl)cc3)c2O[C@@H]1CN(C)Cc1ccc(C(=O)Nc2ccccc2N)cc1`, the cytotoxicity call in test [1] is “inactive”. Further, the growth inhibition call in test [2] was “inactive”.

Regarding `O=C1CCC(=O)NCC/C=C/CCN1`, the cytotoxicity call in test [1] was “inactive”. Also, the growth inhibition call in test [2] was “inactive”.

With `C[C@H](CO)N1C[C@H](C)[C@@H](CN(C)Cc2ccc(-c3ccccc3)cc2)Oc2ccc(NS(=O)(=O)c3cccs3)cc2C1=O`, the cytotoxicity call in test [1] was “inactive”. Also, in test [2], the growth inhibition call is “inactive”.

With `O=C(CN1CCOCC1)N/N=C/c1ccc([N+](=O)[O-])o1`, the cytotoxicity call in test [1] is “inactive”. The growth inhibition call in test [2] is “active”.

With `Cc1cccn2c(=O)c3cc(S(=O)(=O)c4ccc(Br)cc4)c(=N)n(CCCN4CCOCC4)c3nc12`, the cytotoxicity call in test [1] was “inactive”. The growth inhibition call in test [2] is “inactive”.

With `COc1ccc(C(=O)NCC#N)cc1`, in test [1], the cytotoxicity call is “inactive”. Further, the growth inhibition call in test [2] is “inactive”.

Turning to `Cc1noc(C)c1NC(=O)Nc1ccc2c(c1)CC(=O)N([C@H](C)CO)C[C@H](C)[C@H](CN(C)CC1CC1)O2`, the cytotoxicity call in test [1] is “inactive”. Further, in test [2], the growth inhibition call is “inactive”.

In the case of `C[C@@H]1CN([C@H](C)CO)C(=O)c2cc(NC(=O)CCC(F)(F)F)ccc2O[C@@H](C)CCCCO[C@H]1CN(C)Cc1ccncc1`, the cytotoxicity call in test [1] was “inactive”. Further, the growth inhibition call in test [2] was “inactive”.

Regarding `C[C@@H]1CCCCO[C@H](CN(C)C(=O)NC2CCCCC2)[C@@H](C)CN([C@@H](C)CO)C(=O)c2cc(NC(=O)c3ccncc3)ccc2O1`, the cytotoxicity call in test [1] was “inactive”. Besides, the growth inhibition call in test [2] was “inactive”.

With `C[C@H](CO)N1C[C@H](C)[C@H](CN(C)Cc2ccc(F)cc2)Oc2cc(C#CC3CC3)ccc2S1(=O)=O`, the cytotoxicity call in test [1] is “inactive”. Further, the growth inhibition call in test [2] is “inactive”.

Turning to `Cc1noc(C)c1S(=O)(=O)Nc1ccc2c(c1)C(=O)N([C@@H](C)CO)C[C@H](C)[C@@H](CN(C)C(=O)Nc1ccccc1)O2`, the cytotoxicity call in test [1] is “inactive”. The growth inhibition call in test [2] was “inactive”.

Regarding `COc1ccc(S(=O)(=O)N(C)C[C@H]2Oc3c(NC(=O)C4CCOCC4)cccc3C(=O)N([C@@H](C)CO)C[C@@H]2C)cc1`, in test [1], the cytotoxicity call was “inactive”. For the same compound, the growth inhibition call in test [2] is “inactive”.

Turning to `C[C@H](CO)N1C[C@H](C)[C@H](CN(C)S(=O)(=O)c2ccccc2)Oc2ccc(NC(=O)c3ccncc3)cc2CC1=O`, the cytotoxicity call in test [1] was “inactive”. In addition, the growth inhibition call in test [2] was “inactive”.

For `C[C@H]1CN([C@@H](C)CO)C(=O)Cc2cc(NC(=O)Cn3cnnn3)ccc2O[C@@H]1CN(C)Cc1ccc(Cl)c(Cl)c1`, the cytotoxicity call in test [1] was “inactive”. In addition, the growth inhibition call in test [2] was “inactive”.

Consider `CC(C)c1cn(CC[C@@H]2CC[C@H](N)[C@@H](CO)O2)nn1`, for which, in test [1], the cytotoxicity call is “inactive”. For the same compound, in test [2], the growth inhibition call is “inactive”.

For `CC[C@H](C(=O)O)N1CCCC1`, the cytotoxicity call in test [1] was “inactive”. Besides, the growth inhibition call in test [2] is “inactive”.

As for `C[C@H]1CCCCO[C@H](CN(C)S(=O)(=O)c2cccs2)[C@@H](C)CN([C@@H](C)CO)C(=O)c2cc(NS(C)(=O)=O)ccc2O1`, in test [1], the cytotoxicity call is “inactive”. In addition, in test [2], the growth inhibition call is “inactive”.

`COc1ccc([Si](C)(C)[C@H]2[C@H](CC(=O)N(CCO)Cc3ccccc3)O[C@@]3(C(=O)N(Cc4ccc(N5CCC5=O)cc4)c4ccccc43)[C@@H]2C)cc1`: the cytotoxicity call in test [1] was “inactive”. In addition, the growth inhibition call in test [2] was “inactive”.

In the case of `C[C@H](CO)N1C[C@H](C)[C@@H](CN(C)CC2CCCCC2)Oc2c(NC(=O)Nc3ccccc3)cccc2C1=O`, the cytotoxicity call in test [1] was “inactive”. Further, the growth inhibition call in test [2] was “inactive”.

As to `Cc1noc(C)c1S(=O)(=O)Nc1ccc2c(c1)CC(=O)N([C@@H](C)CO)C[C@H](C)[C@H](CN(C)S(=O)(=O)c1ccc(F)cc1)O2`, in test [1], the cytotoxicity call is “inactive”. For the same compound, the growth inhibition call in test [2] was “inactive”.

For the compound `CC(C)NC(=O)Nc1ccc2c(c1)C(=O)N(C)[C@@H]1CC[C@@H](CC(=O)NCc3ccc(F)cc3)O[C@@H]1CO2`, the cytotoxicity call in test [1] was “inactive”. Moreover, in test [2], the growth inhibition call was “inactive”.

For the origin of these results see the antibiotic and cytotoxicity screens of Wong et al. (2023).
